# Data: the supplement of paper PMC12632987
# Over roughly 4,500 sequences, “median log2 fold change of GCK-ALFA target abundance (FLAG IP / Myc IP barcode read proportion)” has its median near 0.078; the lowest 2% begin near -0.6. This is one part of the list.
# B1: GBRAP_160_4698 (protein)
# chain: TATAEKLKAFVKEEFEKAKEEIEGESREQRAVILAGTGGEILMELVEDPNATDELEDEVLAIFDDAVATLLANPNLTLEETKALIDEVEAKVLAAIDKHL
# B2: GBRAP_125_3136 (protein)
# chain: KRAALLALAEALARAMGFSEEEIAEIRRLAEAHDPAQTIVAIFLAAGAEEAAELAAEVLDKLSEEEIAALRALAEAARDLPLEEAVARLLAALKEAKAKL
# B3: GBRAP_80_6776 (protein)
# chain: ALERAEKAIAEVEKLDPELAKRLRKILEELLAKGVSDEVLEAFAEAVEAIAELLKLGAKEEAEELVEELEEAAEEEDDENILAMLRGIAGEALWEVEELE
# B4: GBRAP_160_4544 (protein)
# chain: KEKVEEAIKDIDERAAFVKSLVGKVSTEELINFFDVEVGSFIMELEELGLLTDELGEEIDKIADETKATLKANPNASDEEKKALIDEAAEKIKEAILKHS
# B5: GBRAP_80_6835 (protein)
# chain: MEEELEKAIKEIEKENKEIAKLVKEIVEIARKLGVPLEVLLRLTKAILELTKKDKEKALKLVKELLKEMKEALAAGNRDEALALLVDAESDALLHVEELE
# B6: GBRAP_83_6957 (protein)
# chain: MITVVATSKDDDIESAFDAAIDLHKEEGIEVEIEVYVTKESAETALKAAKKAIDAGVEAEITLVGLESEKETLLKLAEEIKAHAKAKGVNVKVEVIIEPE
# B7: GBRAP_45_5801 (protein)
# chain: KEELEKAVKELRELLKKLKEEVEKLLEKDPETMGKVLELLEEALKILDEGPDTVEKAKELLELVEEALKLLASSPHATGELLDLALEAVNKAAEVLELLK
# B8: GBRAP_160_4347 (protein)
# chain: MEAAEKLIKELKEATERVIAEVDKLSVEQVAVVAAGEFGAVAMEAAEDERYSDEMVDVIIDAQDKILAFLDENKDASPEEIKEGIKKITEEAIKKIKEIA
# B9: GBRAP_184_5363 (protein)
# chain: MVEHLSVDASTAEEVRERLAAARERIRAAGKPTTLHLFLRDADLETVETGARLLAELKDEGLIVDAVIDVPDERTEEEIDKLVAIADKYGVRLVVAIEDE
# B10: GBRAP_160_4600 (protein)
# chain: MEEAEKLLEEIEEIIDEAIEMIEGESPENRLVIIRVAMGEILLLIDSSPIVSEEVEDFADKELDAVVAWVEANPDASVEEIAAKLKAALAKIKEKILAEH
# B11: GBRAP_184_5234 (protein)
# chain: KVLDVEVRADDAAELAAQLAAVEAEAAAAGARVRLILDVKELTAEKAAVIAAQLRRMAAAGLIDLVEVISSTRIAEENVDLLVAAADAAGVRLVLAMVEE
# B12: GBRAP_160_4446 (protein)
# chain: SETLEKLLKLVEETEEEIKKLIEGQSHEERVVIVDVGFGELLLEFIENENVSDELEDEIDKIVRETVEYLKANPDLSEEEIKELIKETAEKIKEAIKKHL
# B13: GBRAP_160_4409 (protein)
# chain: SEELKKTAERILEAVKEELELLLELGEIDPEAAAGLLEGTILLEVFEDDSLTEEQEEKLEELAEELAEELRKRLEEEGKMTEEIKEELLKLAKEGLEKII
# B14: GBRAP_78_6608 (protein)
# chain: EKKEKIEELLDKAAELLRQVRKLEPEVANEANDAETLVNTALYMVTTGSESKEEIIEEVEEAAEEAERLLKLLEGKDKEVQELAKKALEYIKEALKLLKE
# B15: GBRAP_166_4989 (protein)
# chain: SLEELKEELEKELEEVLKKIEEADKDEVIELLIDFGIKLEEARKKGLPLEYALELAVRLAVEAAKRIGDPRLAVGVIAEAAGLDEEELDKLLEEVEKRLK
# B16: GBRAP_14_3839 (protein)
# chain: KEEIEKLLKKAVEEAVEAVRELAPESKEEEVKKLREVLLKAVDEGLATGDLEEAERYLVDVAEESVKELFKDLPPEERGALVAEAVDTLIEGFEELEKKL
# B17: GBRAP_128_3198 (protein)
# chain: VSPEALAELRELADEVIETKTDEAIERFAEAVREALEAGEIDLDALEEIVEYLGEHLDADTLAKVEDALREALADVGAEALAVASGTLGEAIMEKEEEEE
# B18: GBRAP_186_5369 (protein)
# chain: SEEAKKEIEEFIDEFAKKGYIVIGVLKVEEFTEEEKERIEREIRAAAEFSAEFGYKVAIIIEFKGSEEEYEELKEFVEETVERLKKETGAEVEVKIVHNK
# B19: GBRAP_128_3301 (protein)
# chain: MPEELRKRVEELVETIKTGDKEEQRKAAEEIAELMKSVNLEEAEAIADIIISRIPELSKEALEILAEVLDKARPELTPEKRALAAEVASEALLEAEKLEE
# B20: GBRAP_160_4532 (protein)
# chain: DEFLKRAEELVEEAAERAIELVKGETVEQRIVIIEMEFGSVAMELAEDPRASDEMVDVVLDERDKLIETLKENPDLTDEEIKELIEKARDEIIKKLKELA
# B21: GBRAP_52_6179 (protein)
# chain: MREELREKIREMLELVKAGKLEEARKLARELVESLSEEELRLLVEELEEVAEESPLEDEDAVFRLAEILAEEIEEAGYDEVIAEDLLAAAARALYKKRLA
# B22: GBRAP_139_3694 (protein)
# chain: SAREEKLKKAVELTKRAIEEGEPAIRELAKYLVSLSEEEQIEAAEAIAEVLLPLPFDEAERLLELLIEVLRKEFGNEDLAEIVEAARNRALARIAVREEA
# B23: GBRAP_52_6148 (protein)
# chain: SEERAREAAERFIAAVRAGDEEEAREIMKEIAATFSDEEIALFLREVARLVATLTPEQKERVVELMIEFEDIAEAAGHDADLMSYLLAEVAGAAYKALQA
# B24: GBRAP_83_6885 (protein)
# chain: KEKITVAGPSDRIEEIVDIVIDLTKEEGYEVVIEVLATPEGLEKVKEGVERLAKAGVNTEIEIYAKGVTPEEAEALKKELEAIAKKYGVNIKITIHLEEP
# B25: GBRAP_186_5370 (protein)
# chain: EEEAKKEIEEFIDEAADEGYVIFGVLEVEEFTEEAKERIERELEALAEFSAEFGYKGALIILTKTSEEEFEKLKKYVEEKREKLSKETGAEVKVKIIHVK
# B26: GBRAP_128_3602 (protein)
# chain: AVEEARERARKALEEIKNSDLETAKKIAEELAEWLLTKSLEEVKAAMETIKELAPELTEDKLLILQDALHAAAKKATPEKQEVLLDAIGVLGEEAYEKTE
# B27: GBRAP_125_3078 (protein)
# chain: ADEQALADLATLARRLGLSDADVEELVRLAAASSLKQTLIALFLAEGWEEVADAMAKLTEEQARAVLARVAEYLAAHPDATPEEVKALALRLAEEALAAA
# B28: GBRAP_160_4118 (protein)
# chain: TEEDIKLLKDQAKDLKEDIKIVEELSPEEAGNLAEVTLGEIRLELDERNGKFEELAEKADEKIEEIEKTREENPEELKEVSLKALKEMEKALEKAAKELE
# B29: GBRAP_128_3264 (protein)
# chain: MNPEIVEYANNFIEKLKNSDKEEAKKLANELMEKLKTLTDEEVEQFVDVIEKRLKELSVEKLEILADAAREHRDEFTPEKANLVAGLAVEALNEAEEKEE
# Target: GABARAP, O95166
# Sequence (O95166 whole entry, the tested form may be a part): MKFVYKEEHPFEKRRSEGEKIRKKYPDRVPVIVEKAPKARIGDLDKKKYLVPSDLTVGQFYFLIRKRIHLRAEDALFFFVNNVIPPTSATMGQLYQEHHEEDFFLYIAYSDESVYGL
# Experiment: median log2 fold change of GCK-ALFA target abundance (FLAG IP / Myc IP barcode read proportion) (log2 ratio); each designed protein is fused to an ALFA-tag nanobody in HEK293 cells to bring the named protein to FLAG-tagged glucokinase (GCK); Myc marks an untargeted standard; higher = target protein stabilised (more abundant)
# Details: target protein: 3xFLAG-MCP-GCK-ALFA reporter; HEK293 landing pad (RPLP)
# Summary of the method: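 An ALFA-nanobody-fused binder library was recombined into HEK293 landing-pad cells and induced with 2 μg mL^−1 doxycycline. Cells were transfected with a plasmid expressing a FLAG-tagged target and a Myc-tagged standard. After 48 h, lysates underwent anti-FLAG and anti-Myc immunoprecipitation, and circular RNA barcodes were reverse transcribed, amplified and sequenced. Target abundance is the per-binder median log2 ratio of FLAG to Myc barcode read proportions. Barcodes needed ≥10^−7 proportion in both replicates, binders ≥3 barcodes per replicate, and a 10^−6 pseudocount was added; the two replicates were pooled.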
row,Binder,median log2 fold change
1,B1,-0.69
2,B2,-0.351
3,B3,-0.346
4,B4,0.0163
5,B5,0.133
6,B6,0.127
7,B7,-0.367
8,B8,0.152
9,B9,0.152
10,B10,-0.532
11,B11,0.0463
12,B12,-0.136
13,B13,-0.32
14,B14,0.181
15,B15,0.241
16,B16,0.252
17,B17,0.136
18,B18,-0.0034
19,B19,0.241
20,B20,0.247
21,B21,0.0856
22,B22,0.0652
23,B23,-0.0378
24,B24,0.141
25,B25,-0.171
26,B26,0.198
27,B27,0.181
28,B28,0.209
29,B29,0.334
